# Among all 48,000 compounds or so, about 450 (0.94%) were called active. The inconclusive results got no clear call from the source; some entries with a clear call stand among them for comparison. Calls follow the shape of the dose curve; as a rule, active = well fitted inhibition curve with a large enough effect; inconclusive = small, poorly fitted or top-dose-only effect; inactive = no such curve, though single readings can be large or run the other way. Potencies of inconclusive entries are doubtful fits and often do not repeat.
# Assay: Primary qHTS for Identification of Small Molecule Inhibitors of Huntingtin Promoter Activity; also: nearly all actives have a fitted effect of over 50% in size
# Details: HEK293 HTT promoter firefly luciferase reporter (activity 0% = vehicle and -100% = no light), 24 h; series mostly up to 57.5 µM
# How it was run: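 HEK293 Fluc reporter, 2,500 cells/well, 24 h pre-culture; cpds up to 57.5 uM final, 24 h 37 degrees C; Dual-Glo, 10 min RT; normalized vehicle = 0%, zero RLU = -100%.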
# Potency is read from the fitted curve at half-maximal effect; tags tell the direction and shape of the fitted curve.
row,Compound,Potency
1,O=C(Nc1ccccc1C(F)(F)F)C1CCN(c2nnc(-n3cccc3)s2)CC1,inactive
2,COc1ccc(NCc2cccn2-c2nnc(N3CCC(C)CC3)s2)c(OC)c1,"inconclusive: 0.316 µM [inhibitor, full curve, poor fit]"
3,O=C(CSc1nc2c(c(=O)[nH]1)CCC2)Nc1cc(C(F)(F)F)ccc1Cl,inactive
4,Cc1cc(C)cc(Nc2ncnc3sc4c(c23)CCCC4)c1,inactive
5,O=C(NC1CCCC1)c1ccc(CSc2nc3cccnc3n2Cc2ccccc2F)cc1,"inconclusive: 22.4 µM [inhibitor, partial curve, poor fit]"
6,O=C(Cn1c(-c2cccs2)cc2ccccc21)NCCCN1CCN(c2ccc(F)cc2)CC1,"inconclusive: 31.6 µM [inhibitor, partial curve, poor fit]"
7,Cc1ccc(S(=O)(=O)C(CNC(=O)c2ccc(F)c(F)c2)c2ccco2)cc1 (stereo not given),inactive
8,CCS(=O)(=O)c1ccc(O)c(Nc2cc(C)nc(SC)n2)c1,"inconclusive: 17.8 µM [inhibitor, partial curve, poor fit]"
9,CCc1nnc2c(Nc3cccc(F)c3)nc3ccc(C(=O)c4ccccc4)cc3n12,"inconclusive: 31.6 µM [inhibitor, partial curve, poor fit]"
10,Cc1cc(C)cc(NC(=O)c2ccc3c(c2)nnn3C2CCCC2)c1,"inconclusive: 1.78 µM [inhibitor, full curve, poor fit]"
11,COc1ccc2cc(-c3nc(-c4ccc(S(C)=O)cc4)[nH]c3-c3ccncc3)ccc2c1 (stereo not given),inactive
12,CC1CCN(S(=O)(=O)c2nnc(NC(=O)c3ccc(C(C)C)cc3)s2)CC1,"inconclusive: 31.6 µM [inhibitor, single point]"
13,Cc1ccc(CNC(=O)CC(C)CC2=NS(=O)(=O)c3ccccc3N2)cc1 (stereo not given),"inconclusive: 22.4 µM [inhibitor, partial curve, poor fit]"
14,COC(=O)C1=C(C)NC(C)=C(C(=O)OCCN(C)Cc2ccccc2)C1c1cccc([N+](=O)[O-])c1 (stereo not given),"inconclusive: 39.8 µM [inhibitor, single point]"
15,CCOc1ccccc1NC(=O)N(Cc1ccc(F)cc1)C1CCN(CC)CC1,inactive
16,Cc1ccsc1CN(C(=O)c1oc2ccc(F)cc2c1C)C1CCS(=O)(=O)C1 (stereo not given),"inconclusive: 28.2 µM [inhibitor, single point]"
17,Cc1ccc(NC(=O)C2CCCN2S(=O)(=O)c2cccc3nsnc23)c(C)c1 (stereo not given),"inconclusive: 31.6 µM [inhibitor, partial curve, poor fit]"
18,Cc1cccc(CCNc2ncnc3onc(-c4ccc(Cl)cc4)c23)c1,"inconclusive: 28.2 µM [inhibitor, partial curve, poor fit]"
19,COC(=O)c1ccc(NC(=O)CN(CCc2ccccc2)S(=O)(=O)c2ccc(OC)cc2)cc1,"inconclusive: 39.8 µM [inhibitor, partial curve, poor fit]"
20,Cc1ccc(C)c(N2CCN(C(=O)c3cc(C)nc4c3c(C)nn4-c3cccc(F)c3)CC2)c1,"inconclusive: 39.8 µM [inhibitor, partial curve, poor fit]"

row,Compound,Potency
1,CCn1c(C(=O)NCc2ccc(OC(C)C)cc2)cc2oc3ccccc3c21,"inconclusive: 22.4 µM [inhibitor, partial curve]"
2,Cc1ccc(N2CCN(S(=O)(=O)c3cc(C(=O)Nc4cc(Cl)cc(Cl)c4)ccc3F)CC2C)cc1 (stereo not given),"inconclusive: 14.1 µM [inhibitor, partial curve, poor fit]"
3,Cc1cc(-c2ccc(CC(=O)Nc3ccc(-c4cccnc4)cc3)cc2)ccn1,"inconclusive: 17.2 µM [inhibitor, partial curve, poor fit]"
4,COc1ccc(Oc2c(C(F)(F)F)oc3c(CN4CCCC(C)C4)c(O)ccc3c2=O)cc1 (stereo not given),"inconclusive: 31.6 µM [inhibitor, single point]"
5,Cc1cccc(-c2nc3scc(CCNS(=O)(=O)c4ccc(Oc5ccccc5)cc4)n3n2)c1,"inconclusive: 35.5 µM [inhibitor, single point]"
6,O=C(Nc1ccc2oc(-c3cccnc3)nc2c1)c1ccc(-c2ccccc2OC(F)(F)F)o1,"inconclusive: 2.51 µM [inhibitor, full curve]"
7,CC1=C(c2ccc(C)cc2)S(=O)(=O)NC1=NCCCN1CCN(c2ccccc2F)CC1,"inconclusive: 14.1 µM [inhibitor, partial curve]"
8,CCC1CCc2nc3sc(C(=O)Nc4ccc(C)cc4)c(N)c3cc2C1 (stereo not given),inactive
9,COc1ccccc1C(=O)NCCn1cc(SCc2ccc(C)cc2)c2ccccc21,"inconclusive: 39.8 µM [inhibitor, single point]"
10,Cc1nn(-c2ccccc2)c(-n2cccc2)c1C(=O)NCCc1ccc(Cl)cc1,"inconclusive: 20 µM [inhibitor, partial curve, poor fit]"
11,Cn1c(=O)c2cc(C(=O)NCCCN3CCN(c4cccc(Cl)c4)CC3)sc2c2ccccc21,inactive
12,O=C(COc1ccc(Br)cc1Cl)Nc1ncn[nH]1,inactive
13,COCCOc1ccc2c(c1)ncn2-c1ccc2cccc(N3CCC(N)CC3)c2n1,"inconclusive: 15.3 µM [inhibitor, partial curve]"
14,CCOC(=O)c1ccc(CN(Cc2ccc(Cl)cc2Cl)S(=O)(=O)c2ccc(F)c(C)c2)cc1,"inconclusive: 39.8 µM [inhibitor, single point]"
15,COc1ccc(OC)c(CNS(=O)(=O)c2ccc3[nH]c4c(c3c2)CCCCC4)c1,"inconclusive: 22.4 µM [inhibitor, partial curve, poor fit]"
16,COCCn1c2c([n+](Cc3cnccn3)c1C)C(=O)c1ccccc1C2=O,"inconclusive: 0.432 µM [inhibitor, full curve]"
17,COc1ccc(-c2onc(C)c2C)cc1S(=O)(=O)NCC(C)c1ccccc1 (stereo not given),"inconclusive: 39.8 µM [inhibitor, single point]"
18,COc1cccc(N2CCN(C(=O)CCCn3c(=O)[nH]c4ccc(Br)cc4c3=O)CC2)c1,"inconclusive: 22.4 µM [inhibitor, single point]"
19,O=C(C=Cc1ccc(CN(CCO)CCc2c[nH]c3ccccc23)cc1)NO,inactive
20,Cc1cc(N2CCCCC2)nc2ccc(NC(=O)/C=C/c3ccc(OC(C)C)cc3)cc12,"inconclusive: 2.24 µM [inhibitor, full curve]"

row,Compound,Potency
1,COC(=O)c1c(Oc2ccc(OC)cc2)nnc(-c2ccccc2)c1-c1ccccc1,"inconclusive: 39.8 µM [inhibitor, partial curve, poor fit]"
2,Cn1cc(-c2[nH]c3cc(NC(=O)[C@H](N)C4CCCCC4)cc4c3c2C=NNC4=O)cn1,"inconclusive: 1.37 µM [inhibitor, full curve]"
3,COC(=O)COc1ccc2oc(-c3ccc(OC)cc3)cc(=O)c2c1,inactive
4,O=C1CCCc2cc(S(=O)(=O)N3CCCC(C(=O)Nc4ccc(F)c(Cl)c4)C3)ccc2N1 (stereo not given),"inconclusive: 14.1 µM [inhibitor, partial curve, poor fit]"
5,CSc1cccc(Nc2cc(C(=O)NCCc3ccc(Cl)cc3)c3ccccc3n2)c1,"inconclusive: 39.8 µM [inhibitor, single point]"
6,CC1CN(C(=O)N2CCC(C(=O)N3CCN(c4ccccc4)CC3)CC2)c2cc(Cl)ccc2O1 (stereo not given),"inconclusive: 28.2 µM [inhibitor, single point]"
7,CC(=O)Nc1ccc(S(=O)(=O)N2CCC(c3nnc(-c4ccc(C)cc4)o3)CC2)cc1,"inconclusive: 39.8 µM [inhibitor, single point]"
8,CC1(C)CNc2cc(NC(=O)c3cccnc3NCc3ccncc3)ccc21,inactive
9,O=c1[nH]nc(OCCCc2ccc(Cl)cc2)c(NCc2cccnc2)c1Br,"inconclusive: 27.3 µM [inhibitor, single point]"
10,Cc1ccc(C)c(N2CCN(C(=O)CCS(=O)(=O)c3cc4c(cc3Cl)NC(=O)CO4)CC2)c1,"inconclusive: 28.2 µM [inhibitor, partial curve, poor fit]"
11,COc1ccc(CCNC(=O)CSc2cn(CCNC(=O)c3cccc(C(F)(F)F)c3)c3ccccc23)cc1OC,"inconclusive: 28.2 µM [inhibitor, partial curve, poor fit]"
12,Cc1ccc(S(=O)(=O)N2CCc3cc(C(=O)Nc4ccc(C(F)(F)F)cc4)ccc32)cc1,"inconclusive: 15.8 µM [inhibitor, partial curve, poor fit]"
13,O=C(CSc1cn(CCNC(=O)c2ccccc2F)c2ccccc12)Nc1ccccc1F,inactive
14,CCOc1ccccc1CNC(=O)c1ccc(-c2nc(CSc3ccc(C)cc3)c(C)o2)cc1,"inconclusive: 31.6 µM [inhibitor, partial curve, poor fit]"
15,COc1ccc(-n2c(=O)c3c(C)c(C)sc3n(CC(=O)NCc3ccc(C)cc3)c2=O)c(OC)c1,"inconclusive: 11.2 µM [inhibitor, partial curve]"
16,Cc1ccc(Nc2c(-c3ccsc3)nc3cccc(C)n23)cc1,"inconclusive: 28.2 µM [inhibitor, single point]"
17,COc1ccc(Cl)cc1NC(=O)CSC1=Nc2ccccc2C2=NC(CC(=O)NC3CCCCC3)C(=O)N12 (stereo not given),"inconclusive: 28.2 µM [inhibitor, single point]"
18,Cc1ccc(NC(=O)c2ccc3oc(=O)c(S(=O)(=O)c4ccccc4)cc3c2)cc1C,inactive
19,CCOC(=O)C1CCN(C(=O)CN2c3ccc(C(C)C)cc3-c3ccccc3S2(=O)=O)CC1,inactive
20,COc1ccccc1CNC(=O)CCC1N=C2c3ccccc3N=C(SCC(N)=O)N2C1=O (stereo not given),"inconclusive: 31.6 µM [inhibitor, partial curve, poor fit]"

# Reference: PubChem BioAssay AID1508623 (National Center for Advancing Translational Sciences (NCATS), 2021)
